The list shows a part of the results. Further columns of the screen follow, without active or inactive calls.
Columns and labels:
Test in all cases: Primary Screen for Target Class Profiling of Small Molecule Inhibitors of Methyltransferases
[1] = molecular target: Glycine N-methyltransferase (Homo sapiens) (UniProt Q14749); conditions: purified enzyme, MTase-Glo SAH luminescence; measured here: GNMT inhibition; at 40 µM; stronger effect = lower value
Summary of the method: (§1)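 Each enzyme was reacted with SAM and its substrate, with compounds tested once at 40 uM; SAH formed was read by MTase-Glo luminescence.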

[2] = molecular target: Guanidinoacetate N-methyltransferase (Homo sapiens) (UniProt Q14353); conditions: purified enzyme, MTase-Glo SAH luminescence; measured here: GAMT inhibition; at 40 µM; stronger effect = lower value
Summary of the method: as §1

[3] = molecular target: Histamine N-methyltransferase (Homo sapiens) (UniProt P50135); conditions: purified enzyme, MTase-Glo SAH luminescence; measured here: HNMT inhibition; at 40 µM; stronger effect = lower value
Summary of the method: as §1

[4] = molecular target: Nicotinamide N-methyltransferase (Homo sapiens) (UniProt P40261); conditions: purified enzyme, MTase-Glo SAH luminescence; measured here: NNMT inhibition; at 40 µM; stronger effect = lower value
Summary of the method: as §1

[5] = molecular target: Phenylethanolamine N-methyltransferase (Homo sapiens) (UniProt P11086); conditions: purified enzyme, MTase-Glo SAH luminescence; measured here: PNMT inhibition; at 40 µM; stronger effect = lower value
Summary of the method: as §1
% is set by controls: 0 for no effect and ±100 for the full control effect.

Row | Structure (SMILES) | activity change, negative = inhibition [1] [%] | activity change, negative = inhibition [2] [%] | activity change, negative = inhibition [3] [%] | activity change, negative = inhibition [4] [%] | activity change, negative = inhibition [5] [%]
1 | Cc1ccc(-n2cccc2CC(=O)N2CCOCC2)cc1 | -9.84 | -10.7 | -3.54 | -15.4 | -1.79
2 | COc1ccc(OC)c(CCNC(=O)CCc2nnc3n(Cc4ccc(C)cc4)c(=O)c4ccccc4n23)c1 | -3.29 | 0 | -2.47 | -7.23 | -10.4
3 | COc1cccc(CN(C(=O)CC(C)(C)C)[C@H]2C[C@H](C(=O)N3CCNCC3)N(Cc3ccc4c(c3)OCO4)C2)c1 | -8.68 | -7.17 | 1.93 | -22.2 | -3.4
4 | C=CCN(C)C(=O)[C@@H](C)C1CC[C@@]2(C)Cc3sc(-c4cccnc4)nc3[C@@H](C)[C@@H]2[C@H]1O (stereo partly drawn) | -4.85 | 0.313 | -0.525 | 63.5 | -12.8
5 | O=C([C@@H]1C[C@H](F)CN1C(=O)CCCc1ccccc1)N1CCCCC1 | -2.73 | 3.22 | 2.02 | -3.01 | -1.73
6 | CC(C)CNC(=O)c1ccc2c(=O)n(C(C)C)c3nn(CC(=O)Nc4cccc(Cl)c4)c(=O)n3c2c1 | 4.37 | 0.664 | 6.89 | 3 | 6.71
7 | CCN1C(=O)c2cc(C(=O)Nc3cc(C)cc(C)c3)nn2CC1(C)C(=O)NC1CCCC1 (stereo not drawn) | 1.41 | 2.33 | -22.7 | 1.38 | 1.88
8 | CN(C)c1nc(N)c(C(=O)N=C(N)N)nc1Cl | 5.82 | 13.4 | -6.94 | -5 | 1.99
9 | CC1(C(=O)NC2CCCC2)Cn2c(nc3ccccc32)C(=O)N1Cc1cccs1 (stereo not drawn) | -0.496 | 0 | 3.67 | 7.18 | 0.996
10 | CCCN(C)C(=O)CCc1ccnc(N2CCOCC2)c1 | -1.44 | 2.98 | -0.058 | -3.75 | -0.678
11 | CCOCCCNc1nc2c(-c3cccc(F)c3)nnn2c2ccc(Cl)cc12 | 0.8 | 0 | 8.14 | 11.4 | 1.64
12 | CCC(C(=O)N1CCC2(CC1)C(=O)N(CC(=O)NCC(C)C)CN2c1ccccc1)c1ccccc1 (stereo not drawn) | -5.93 | -2.87 | -5.14 | -19.5 | -8.7
13 | Nc1nc2c(ncn2[C@@H]2O[C@H](CO)[C@@H](O)[C@@H]2O)c(=O)[nH]1 | 4.18 | 14.7 | 8.55 | -0.044 | 7.77
14 | Cc1cnc(C(=O)N2CCC3(CC2)CCC(O)(CN(C)C)CC3)cn1 | -0.528 | 0.898 | -1.43 | -4.61 | 0.15
15 | Cc1ccc(C)c(C(=O)Cn2nc3n(C(C)C)c(=O)c4ccc(C(=O)NCC(C)C)cc4n3c2=O)c1 | 4.63 | 1.87 | 5.46 | 1.32 | -2.08
16 | COc1ccc(NC(=O)Cn2c(=O)oc3cc(S(=O)(=O)NCc4ccccc4)ccc32)c(OC)c1 | 0.56 | 0.342 | 3.57 | -1.24 | 5.02
17 | CC(C)Cn1c(=O)c2ccc(C(=O)NC(C)C)cc2n2c(=O)n(CC(=O)c3ccc(F)cc3F)nc12 | -0.986 | 4.64 | -0.019 | -2.98 | 0.856
18 | O=C(c1ccc(OC(F)F)c(C#Cc2ccccn2)c1)N1Cc2cccnc2C1 | -8.36 | 1.14 | 1.86 | -18.1 | -6.55
19 | Cc1ccc(NC(=O)CSc2nnc3n(CC(C)C)c(=O)c4cc(F)ccc4n23)cc1 | -1.92 | 4.58 | 2.94 | 0.333 | -0.993

Row | Structure (SMILES) | activity change, negative = inhibition [1] [%] | activity change, negative = inhibition [2] [%] | activity change, negative = inhibition [3] [%] | activity change, negative = inhibition [4] [%] | activity change, negative = inhibition [5] [%]
20 | COc1cc(C(C)=O)c(OC)c2c1OC(C)(C)C=C2 | 3.8 | 3.93 | 8.28 | -12.2 | -0.019
21 | COc1cc(C(=O)NC2CCN(C)CC2)c(F)cc1Nc1ncc2c(n1)N(C1CCCC1)CC(F)(F)C(=O)N2C | -26.6 | -10.9 | -37.1 | -38.3 | -32.5
22 | COc1ccc2c3c1O[C@H]1C[C@@H](O)C=C[C@@]31CCN(C)C2 | -0.941 | 3.17 | 4.19 | -8.76 | -2.05
23 | COc1cc(Nc2nc3ccccc3nc2NS(=O)(=O)c2ccc(NC(=O)c3ccc(OC)c(C)c3)cc2)cc(OC)c1 | -7.97 | -13.8 | 2.8 | -49.3 | -18.4
24 | CC1=CC23[C@H](C=C(C(=O)O)[C@@H]2COC(=O)[C@]3(O)CO)[C@@H]1C (stereo partly drawn) | 0 | -1.62 | -5.84 | -12.6 | 1.19
25 | Cc1cc(F)c(Nc2ncnc3cc(OCc4ccccc4)ccc23)cc1O | – | -23 | – | -32.3 | -4.71
26 | CC1(C(=O)NC2CCCCCC2)Cn2c(ccc2-c2ccco2)C(=O)N1C1CCCCC1 (stereo not drawn) | -2.41 | 0 | 1.84 | -5.64 | -1.92
27 | C=C1C(OC(C)=O)CCC2(C)CC3(O)OC(=O)C(C)=C3CC12 (stereo not drawn) | -2.52 | -12.2 | 4.41 | -22.7 | -0.667
28 | CC(C)Cn1c(=O)c2ccccc2n2c(=O)n(CC(=O)Nc3ccc4c(c3)OCCO4)nc12 | -3.1 | 0.481 | -1.07 | 2.23 | -2.92
29 | COc1cccc(CN2C(=O)c3cc4occc4n3CC2(C)C(=O)NC2CCC(C)CC2)c1OC (stereo not drawn) | -8.36 | 4.29 | -3.37 | -3.34 | -1.41
30 | COc1ccc(OC)c2c1cc1n2CC(C)(C(=O)NC2CCCC2)N(Cc2ccccc2C)C1=O (stereo not drawn) | -3.4 | 3.57 | -0.32 | -11.9 | -3.68
31 | COc1ccc(CN2C(=O)c3cc4occc4n3CC2(C)C(=O)NC2CCCC(C)C2C)cc1 (stereo not drawn) | -0.188 | 0 | 0.121 | -4.64 | -2.35
32 | Cc1ccc(Cn2c(=O)c3ccccc3n3c(SCC(=O)Nc4cc(F)ccc4F)nnc23)cc1 | 7.73 | 0 | 13.2 | 7.33 | 9.18
33 | COC(=O)c1cc2n(n1)CC(C)(C(=O)NC1CCCCCC1)N(c1ccc(Cl)cc1)C2=O (stereo not drawn) | -0.588 | 2.57 | -2.12 | -2.19 | -1.48
34 | Cc1ccc(C(=O)NCc2nnc3ccc(-c4ccccc4)nn23)s1 | -11.1 | 2.81 | 0.585 | -5.91 | -0.062
35 | Cn1ncnc1COc1nn2c(-c3cc(F)ccc3F)nnc2cc1C(C)(C)C | -2.19 | -4.75 | -3.48 | -16.4 | -4.39
36 | CNC(=O)c1ccc2cc(C3(O)CCn4cncc43)ccc2c1 (stereo not drawn) | 2.84 | 3.37 | 8.43 | -9.46 | -0.979
37 | COCCN1C(=O)c2cc3occc3n2CC1(C)C(=O)NC1CCC(C)CC1 (stereo not drawn) | 1.74 | 4.05 | 6.12 | 5.32 | 3.03
38 | COc1cc(/C=C/CO)cc(OC)c1O[C@@H]1O[C@H](CO[C@@H]2O[C@H](CO)[C@@H](O)[C@H](O)[C@H]2O)[C@@H](O)[C@H](O)[C@H]1O | 5.18 | 3.99 | 6.28 | -7.35 | 0.726
